{"source": "PubChem BioAssay AID1671188", "about": "(National Center for Advancing Translational Sciences (NCATS), 2021)", "note": "Among all 100,000 compounds or so, about 250 (0.25%) were called active. The inconclusive results got no clear call from the source; some entries with a clear call stand among them for comparison. Calls follow the shape of the dose curve; as a rule, active = well fitted inhibition curve with a large enough effect; inconclusive = small, poorly fitted or top-dose-only effect; inactive = flat fitted curve, though single readings scatter. No potency is given beside an inconclusive call; the fits are too rough. % is scaled to controls: 0 for no effect and ±100 for the full control effect; potency is read from the fitted curve at half-maximal effect; tags tell the direction and shape of the fitted curve.", "data": [{"target": "Alanine aminotransferase 2 (Homo sapiens) (UniProt Q8TD30)", "sequence (Q8TD30 whole entry, looked up)": "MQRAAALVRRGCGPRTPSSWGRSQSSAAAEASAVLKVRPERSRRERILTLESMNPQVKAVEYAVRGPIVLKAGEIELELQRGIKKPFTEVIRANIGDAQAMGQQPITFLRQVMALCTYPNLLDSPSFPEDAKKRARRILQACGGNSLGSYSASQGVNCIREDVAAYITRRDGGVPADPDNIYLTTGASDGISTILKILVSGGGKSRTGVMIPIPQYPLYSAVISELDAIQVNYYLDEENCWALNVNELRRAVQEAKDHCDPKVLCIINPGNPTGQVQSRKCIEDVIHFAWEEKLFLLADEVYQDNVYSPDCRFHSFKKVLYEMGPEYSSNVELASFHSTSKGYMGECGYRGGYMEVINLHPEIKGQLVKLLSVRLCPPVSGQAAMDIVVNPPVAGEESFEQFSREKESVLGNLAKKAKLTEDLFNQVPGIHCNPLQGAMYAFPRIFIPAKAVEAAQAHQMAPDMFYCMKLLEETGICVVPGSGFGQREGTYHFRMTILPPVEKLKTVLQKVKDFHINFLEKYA", "assay": "Primary qHTS assay for inhibitors of Glutamate pyruvate transaminase 2 (GPT2); also: nearly all actives have a fitted effect of over 60% in size", "conditions": "Recombinant GPT2, coupled pyruvate oxidase/HRP Amplex Red fluorescence; activity change, negative = inhibition: at 57.7 µM (top of the series) unless noted; series mostly up to 57.7 µM", "outline": "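Fluorescence read-out: pyruvate from GPT2 turnover coupled to pyruvate oxidase, HRP and Amplex Red (0.2mM ThPP, 0.2U/mL PO and HRP, 50uM Amplex final). Substrates 250uM a-KG, 2mM L-alanine; enzyme 10ng/uL; 30 min RT.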", "values": [{"smiles": "COc1ccc(C(=O)N2CCC(c3nc(C4CCOCC4)no3)CC2)cn1", "Potency": "inconclusive [inhibitor, single point]"}, {"smiles": "COc1cccc(CN2CCC(Oc3ccc(C(=O)NC4CCCC4)cc3Cl)CC2)c1", "Potency": "inconclusive [inhibitor, single point]"}, {"smiles": "CN1CCCC1c1nc(C2CN(C(=O)c3ccoc3)C2)no1", "note": "(stereo not drawn)", "Potency": "inconclusive [inhibitor, single point]"}, {"smiles": "CC#CCn1cc2c3c(cccc31)[C@H](CC(C)C)N[C@H](C(=O)NCc1ccccc1)C2", "Potency": "inconclusive [inhibitor, single point]"}, {"smiles": "CN1CC(=O)N(c2ccc(Cl)cc2)Cc2c1ncnc2N1CCCCC1", "Potency": "inconclusive [inhibitor, single point]"}, {"smiles": "CCCN1C(=O)[C@@H]2[C@@H](CCN2C(=O)CSCC(=O)O)N(Cc2cccs2)C1=O", "Potency": "inactive"}, {"smiles": "C[S+](=O)([O-])NC1CCCN(Cc2ccc(-c3cncnc3)cc2)C1", "note": "(stereo not drawn)", "Potency": "inconclusive [inhibitor, single point]"}, {"smiles": "CCn1cc(CN2CCN(Cc3ccccc3)CC2)ccc1=O", "Potency": "inconclusive [inhibitor, single point]"}, {"smiles": "CC(=O)Nc1ccc(CN2CCN3C(=O)N(C)C[C@H]3C2)cc1", "Potency": "inactive"}, {"smiles": "Cc1nc(N2CCC(C(=O)NC3CCCCCCC3)CC2)cc(C(F)(F)F)n1", "Potency": "inactive"}, {"smiles": "CCn1cnnc1CC1CCN(C(=O)Nc2ccccc2)C1", "note": "(stereo not drawn)", "Potency": "inactive"}, {"smiles": "COc1cccc([S+](=O)([O-])N2CCC3(C2)NC(=O)c2ccccc2CO3)c1", "note": "(stereo not drawn)", "Potency": "inconclusive [inhibitor, partial curve, poor fit]"}, {"smiles": "COc1cccc(N2CC3(COCC2=O)CN(c2ccc(C(F)(F)F)cn2)C3)n1", "Potency": "inconclusive [inhibitor, single point]"}, {"smiles": "COc1cccc(CCC(=O)N2C[C@@H]3CC[C@H](C2)N(CC2CCC2)C3=O)c1", "outcome": "inactive [at 11.5 µM]"}, {"smiles": "COC(=O)c1ccc(NC(=O)CCn2ccn3nc4c(c3c2=O)CCCC4)cc1", "Potency": "inactive"}, {"smiles": "CCC(=O)N1CCCN(c2ccnc3ccnn23)CC1", "Potency": "inactive"}, {"smiles": "Fc1ccc(-c2ccc3ncc(Nc4ccc5c(c4)OCO5)n3n2)cc1", "Potency": "inconclusive [inhibitor, single point]"}, {"smiles": "CN(C)c1ccc(-c2noc([C@@H]3CCCN3Cc3cnc4ccccc4c3)n2)cn1", "Potency": "inconclusive [inhibitor, single point]"}, {"smiles": "Cc1c(N(C)CS(=O)(=O)O)c(=O)n(-c2ccccc2)n1C", "Potency": "inconclusive [inhibitor, single point]"}, {"smiles": "C/C(=C\\C(=O)C(C)C1CCC2C3=C(CCC21C)C1(C)CCC(=O)C(C)(C)C1(O)CC3)C(C)(C)O", "note": "(stereo not drawn)", "Potency": "inconclusive [inhibitor, single point]"}, {"smiles": "O=[S+]([O-])(NC1CCN(c2nccc(Nc3ccccc3F)n2)CC1)c1ccccc1", "Potency": "inconclusive [inhibitor, partial curve, poor fit]"}, {"smiles": "C[S+](=O)([O-])N1Cc2ccccc2CC2(CCN(Cc3cccnc3)C2)C1", "note": "(stereo not drawn)", "Potency": "inactive"}, {"smiles": "CCCCNC(=O)Cc1csc2nc(C)c(-c3cc(C)n(-c4cccc(C)c4C)n3)c(=O)n12", "Potency": "inconclusive [inhibitor, single point]"}, {"smiles": "Cc1ccc(-c2noc([C@@H]3C[C@@H](O)CN3Cc3cccc(OC(F)(F)F)c3)n2)cc1F", "Potency": "inconclusive [inhibitor, partial curve, poor fit]"}, {"smiles": "COc1ccccc1CC(=O)N1CCC[C@H]1c1nc(-c2ccc(OC)c(OC)c2)no1", "Potency": "inactive"}, {"smiles": "CC(/C=C/C1(O)C(C)(C)CC(O)CC1(C)O)OC1OC(CO)C(O)C(O)C1O", "note": "(stereo not drawn)", "Potency": "inactive"}, {"smiles": "COc1cc(-c2nc3cc4[nH]c(=O)[nH]c4cc3[nH]2)cc(OC)c1O", "activity change, negative = inhibition": "inactive: -29.4% [at 11.5 µM]"}, {"smiles": "Cc1nc([C@@H]2CN(C(=O)c3cc(C4CC4)[nH]n3)C[C@H]2C(N)=O)n[nH]1", "Potency": "inconclusive [inhibitor, full curve, poor fit]"}, {"smiles": "COc1cc(F)ccc1-c1nc(N2CCOCC2)cc2c1CN(CC1CC1)C2=O", "Potency": "inactive"}, {"smiles": "COCCNC[C@@H]1C=C(C)[C@H](Cc2nnc(-c3ccc(OC)cc3)o2)C[C@H]1C(C)C", "Potency": "inconclusive [inhibitor, single point]"}, {"smiles": "O=C(c1ccccc1)N1CCCC(C(=O)N2CCC(c3nc4ccncc4[nH]3)CC2)C1", "note": "(stereo not drawn)", "Potency": "inactive"}, {"smiles": "Cc1ccc(C)c(C(=O)N2CCC(n3cnnc3-c3ccccc3)CC2)c1", "Potency": "inconclusive [inhibitor, single point]"}, {"smiles": "COc1ccc(C(=O)N2CCOCC3(C2)CN(c2ccccc2)C3)cc1OC", "Potency": "inconclusive [inhibitor, single point]"}, {"smiles": "CCC(C(=O)N1CCN(C(=O)COc2ccccc2)CC1)n1cccn1", "note": "(stereo not drawn)", "Potency": "inconclusive [inhibitor, partial curve, poor fit]"}, {"smiles": "O=C1NC2(CCN(Cc3ccc(F)cc3)C2)OCc2ccccc21", "note": "(stereo not drawn)", "Potency": "inactive"}, {"smiles": "COCCCNC(=O)c1cnc2n[nH]c(-c3ccccc3)c2n1", "Potency": "inconclusive [inhibitor, single point]"}, {"smiles": "CCN(CC)CCc1nc(-c2ccccc2)no1", "Potency": "inconclusive [inhibitor, single point]"}, {"smiles": "CCc1[nH]c2ccc(CNC(=O)C3CC(=O)Nc4ccccc43)cc2c1C", "note": "(stereo not drawn)", "Potency": "inactive"}, {"smiles": "O=C1COc2ccc(OCC3CC3)nc2CN1Cc1ccc(C(F)(F)F)cc1", "Potency": "inconclusive [inhibitor, single point]"}, {"smiles": "CCOc1ccccc1C(=O)N1CCc2[nH]nc(-c3ccc(F)c(F)c3)c2C1", "Potency": "inconclusive [inhibitor, single point]"}, {"smiles": "COc1ccc(-c2cc(N3CCCN(C(=O)Cc4c[nH]c5ccccc45)CC3)n[nH]2)cc1", "Potency": "inconclusive [inhibitor, single point]"}, {"smiles": "COCCn1c(=O)c(C(=O)N2CCN(C(=O)c3ccc(C(F)(F)F)cc3)CC2)nc2cccnc21", "Potency": "inactive"}, {"smiles": "COc1ccc2nc([C@H]3CCN(Cc4ccc5c(c4)OCO5)C3)[nH]c2c1", "Potency": "inconclusive [inhibitor, single point]"}]}]}
